In US11873320B2 (REATA PHARMACEUTICALS HOLDINGS, LLC, priority 2013, dated 2024):
Where two headings read alike, the source gives them in different places.

Assays:
[1] = system: bleomycin-induced pulmonary fibrosis; assay: bleomycin-induced pulmonary fibrosis in mice; format: in vivo, mouse; conditions: QD×39, C57BL/6 mice
Method: Bleomycin was given on Day 0. Daily weights were measured. BAL fluid cell counts were obtained at sacrifice. […] No significant improvement in chronic inflammation score, interstitial fibrosis, or number of fibrotic foci was observed.
On the last day of dosing, lung tissue was collected and histology was performed to evaluate the extent of inflammation and interstitial fibrosis. […] Additional evaluation was performed using a rat model of pulmonary fibrosis that has been extensively characterized at the Lovelace Respiratory Research Institute. In this study, rats were challenged with bleomycin or saline by intratracheal administration on day 0. […] For the remaining animals, bronchoalveolar lavage fluid was collected on day 28 for assessment of pro-inflammatory infiltrates, and lung tissue was analyzed for hydroxyproline levels and histopathology. Challenge with bleomycin sulfate induced a substantial release of neutrophils and an increase in soluble collagen in the BALF, as well as an increase in hydroxyproline in the lung.

C57BL/6 mice = conditions: for brain exposure over in vitro IC50 for NO induction / lung exposure over in vitro IC50 for NO induction: 4 hours after final dose

Structure (SMILES): CC1(C)CC[C@]2(NC(=O)C(C)(F)F)CC[C@]3(C)[C@H](C(=O)C=C4[C@@]5(C)C=C(C#N)C(=O)C(C)(C)[C@@H]5CC[C@]43C)[C@@H]2C1 [RTA 408, N-((4aS,6aR,6bS,8aR,12aS,14aR,14bS)-11-cyano-2,2,6a,6b,9,9,12a-heptamethyl-10,14-dioxo-1,2,3,4,4a,5,6,6a,6b,7,8,8a,9,10,12a,14,14a,14b-octadecahydropicen-4a-yl)-2,2-difluoropropanamide]
- BAL fluid inflammatory infiltrate [1]: notable reduction in inflammatory infiltrate
- ALP (U/L) (C57BL/6 mice; 10 mg/kg PO QD×14): 131 U/L
- ALT (U/L) (C57BL/6 mice; 10 mg/kg PO QD×14): 39 U/L
- AST (U/L) (C57BL/6 mice; 10 mg/kg PO QD×14): 98 U/L
- BUN (C57BL/6 mice; 10 mg/kg PO QD×14): 15 mg/dL
- Cr (C57BL/6 mice; 10 mg/kg PO QD×14): <0.2 mg/dL
- Glu (C57BL/6 mice; 10 mg/kg PO QD×14): 307 mg/dL
- Tot Bil (C57BL/6 mice; 10 mg/kg PO QD×14): <0.2 mg/dL
- brain exposure over in vitro IC50 for NO induction (C57BL/6 mice; 10 mg/kg): 29 fold
- lung exposure over in vitro IC50 for NO induction (C57BL/6 mice; 10 mg/kg): 55 fold
- ALP (U/L) (C57BL/6 mice; 30 mg/kg PO QD×14): 110 U/L
- ALT (U/L) (C57BL/6 mice; 30 mg/kg PO QD×14): 63 U/L
- AST (U/L) (C57BL/6 mice; 30 mg/kg PO QD×14): 147 U/L
- BUN (C57BL/6 mice; 30 mg/kg PO QD×14): 15 mg/dL
- Cr (C57BL/6 mice; 30 mg/kg PO QD×14): <0.2 mg/dL
- Glu (C57BL/6 mice; 30 mg/kg PO QD×14): 285 mg/dL
- Tot Bil (C57BL/6 mice; 30 mg/kg PO QD×14): <0.2 mg/dL
- ALP (U/L) (C57BL/6 mice; 100 mg/kg PO QD×14): 98 U/L
- ALT (U/L) (C57BL/6 mice; 100 mg/kg PO QD×14): 91 U/L
- AST (U/L) (C57BL/6 mice; 100 mg/kg PO QD×14): 167 U/L
- BUN (C57BL/6 mice; 100 mg/kg PO QD×14): 15 mg/dL
- Cr (C57BL/6 mice; 100 mg/kg PO QD×14): <0.2 mg/dL
- Glu (C57BL/6 mice; 100 mg/kg PO QD×14): 273 mg/dL
- Tot Bil (C57BL/6 mice; 100 mg/kg PO QD×14): <0.2 mg/dL
- brain exposure over in vitro IC50 for NO induction (C57BL/6 mice; 100 mg/kg): 541 fold
- lung exposure over in vitro IC50 for NO induction (C57BL/6 mice; 100 mg/kg): 1138 fold
- liver NQO1 and GST enzyme activities (C57BL/6 mice; PO QD×14): induced in a dose dependent manner
- liver mRNA expression of Nrf2 target genes (C57BL/6 mice; PO QD×14): Substantial increases in mRNA expression
- survival (C57BL/6 mice; PO QD×14): All animals survived to day 14
- toxicity based on clinical chemistries (C57BL/6 mice; PO QD×14): no evidence of toxicity at any dose
- weight changes compared to the vehicle group (C57BL/6 mice; PO QD×14): No significant weight changes
